Source: patent US20190225669A1 (ACCELERON PHARMA, published 2019)

Key:
BMP9 [1] = biological target: T1, BMP9 (UniProt Q9UK05 320-429); experiment: Biacore SPR
T1 construct: also called GDF2
T1 sequence (looked up): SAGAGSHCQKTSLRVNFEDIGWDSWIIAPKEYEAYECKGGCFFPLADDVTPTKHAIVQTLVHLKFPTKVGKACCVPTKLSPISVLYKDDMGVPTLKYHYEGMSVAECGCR
Experimental: (§1) Ligands were injected and allowed to flow over the captured receptor protein.

BMP7 = biological target: T2, BMP7 (UniProt P18075 293-431); experiment: Biacore SPR
T2 sequence (looked up): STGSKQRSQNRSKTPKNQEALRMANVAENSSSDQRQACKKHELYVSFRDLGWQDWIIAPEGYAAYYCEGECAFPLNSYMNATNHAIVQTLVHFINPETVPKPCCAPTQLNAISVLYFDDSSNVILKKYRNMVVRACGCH
Experimental: as §1

GDF3 = biological target: T3, GDF3 (UniProt Q9NR23 251-364); experiment: Biacore SPR
T3 sequence (looked up): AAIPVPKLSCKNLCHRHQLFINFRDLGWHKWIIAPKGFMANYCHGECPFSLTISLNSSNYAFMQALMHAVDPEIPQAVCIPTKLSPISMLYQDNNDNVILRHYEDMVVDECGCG
Experimental: as §1

activin AB = biological target: T4, activin AB (UniProt P08476 311-426; P09529 293-407); experiment: Biacore SPR
T4 sequence (looked up) 1: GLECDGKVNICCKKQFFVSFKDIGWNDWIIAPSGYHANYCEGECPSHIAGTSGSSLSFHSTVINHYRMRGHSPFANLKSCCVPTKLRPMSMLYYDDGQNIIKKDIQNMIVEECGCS
T4 sequence (looked up) 2: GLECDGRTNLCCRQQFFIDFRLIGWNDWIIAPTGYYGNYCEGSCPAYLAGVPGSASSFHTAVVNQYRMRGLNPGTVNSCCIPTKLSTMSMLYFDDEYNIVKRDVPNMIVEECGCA
Experimental: as §1

GDF8 = biological target: T5, GDF8 (UniProt O14793 267-375); experiment: Biacore SPR
T5 construct: also called myostatin
T5 sequence (looked up): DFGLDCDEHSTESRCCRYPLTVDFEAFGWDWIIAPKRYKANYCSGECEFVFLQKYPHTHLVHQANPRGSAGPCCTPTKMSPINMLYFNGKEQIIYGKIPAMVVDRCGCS
Experimental: as §1

GDF11 = biological target: T6, GDF11 (UniProt O95390 299-407); experiment: Biacore SPR
T6 construct: also called BMP11
T6 sequence (looked up): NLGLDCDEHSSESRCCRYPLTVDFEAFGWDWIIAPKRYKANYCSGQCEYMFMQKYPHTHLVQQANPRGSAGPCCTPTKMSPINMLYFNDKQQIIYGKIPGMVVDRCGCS
Experimental: as §1

BMP6 = biological target: T7, BMP6 (UniProt P22004 382-513, limits assumed); experiment: Biacore SPR
T7 sequence (looked up): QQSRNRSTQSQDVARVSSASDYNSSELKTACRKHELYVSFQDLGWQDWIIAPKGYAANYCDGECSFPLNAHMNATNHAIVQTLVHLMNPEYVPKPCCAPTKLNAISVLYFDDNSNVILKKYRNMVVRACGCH
Experimental: as §1

activin B = biological target: T8, activin B (UniProt P09529 293-407); experiment: Biacore SPR
T8 sequence (looked up): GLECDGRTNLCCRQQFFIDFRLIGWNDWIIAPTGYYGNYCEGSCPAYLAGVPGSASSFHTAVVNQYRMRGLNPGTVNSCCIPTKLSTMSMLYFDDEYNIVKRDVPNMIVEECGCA
Experimental: as §1

activin AC = biological target: T9, activin AC (UniProt P08476 311-426; P55103 237-352); experiment: Biacore SPR
T9 sequence (looked up) 1: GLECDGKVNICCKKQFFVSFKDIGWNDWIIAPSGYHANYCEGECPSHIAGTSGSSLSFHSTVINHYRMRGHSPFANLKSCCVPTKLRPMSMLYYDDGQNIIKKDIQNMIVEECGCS
T9 sequence (looked up) 2: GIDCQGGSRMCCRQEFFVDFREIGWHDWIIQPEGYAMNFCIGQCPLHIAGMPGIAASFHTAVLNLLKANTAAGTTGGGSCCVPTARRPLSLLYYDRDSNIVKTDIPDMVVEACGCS
Experimental: as §1

activin A = biological target: T10, activin A (UniProt P08476 311-426); experiment: Biacore SPR
T10 sequence (looked up): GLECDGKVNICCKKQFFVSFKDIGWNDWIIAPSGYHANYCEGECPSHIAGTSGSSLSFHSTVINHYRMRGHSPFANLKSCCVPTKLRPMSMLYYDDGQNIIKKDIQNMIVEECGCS
Experimental: as §1

BMP10 [2] = biological target: T11, BMP10 (UniProt O95393 317-424); experiment: Biacore SPR; kinetics indeterminate (transient)
T11 sequence (looked up): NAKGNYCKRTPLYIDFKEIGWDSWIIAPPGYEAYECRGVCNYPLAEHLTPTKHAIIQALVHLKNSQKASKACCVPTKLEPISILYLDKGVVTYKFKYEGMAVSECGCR
Experimental: as §1

BMP15 [3] = biological target: T12, BMP15 (UniProt O95972 268-392); experiment: Biacore SPR
T12 construct: also called GDF9b
T12 sequence (looked up): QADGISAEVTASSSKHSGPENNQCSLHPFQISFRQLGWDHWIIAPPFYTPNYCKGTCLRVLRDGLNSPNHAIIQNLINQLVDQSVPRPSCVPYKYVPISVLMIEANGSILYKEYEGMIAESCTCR
Experimental: as §1

BMP10 [4] = biological target: T11, BMP10; experiment: Biacore SPR
Experimental: as §1

BMP15 [5] = biological target: T12, BMP15; experiment: Biacore SPR; remark: listed apart in the source
BMP9 [6] = biological target: T1, BMP9; experiment: Biacore SPR; remark: listed apart in the source
Experimental: (§2) A Biacore™-based binding assay was used to compare ligand binding selectivity of the TGFβRIISHORT-Fc:ALK1-Fc heterodimeric complex described above with that of TGFβRIISHORT-Fc and ALK1-Fc homodimeric complexes. […] Ligands were injected and allowed to flow over the captured receptor protein.

BMP10 [7] = biological target: T11, BMP10; experiment: Biacore SPR; remark: listed apart in the source
Experimental: as §2

TGFβ2 = biological target: T13, TGFβ2 (human, UniProt P61812 303-414); experiment: Biacore SPR
T13 construct: Human (PeproTech) is stated for the A549 reporter assay; also called TGF-beta2
T13 sequence (looked up): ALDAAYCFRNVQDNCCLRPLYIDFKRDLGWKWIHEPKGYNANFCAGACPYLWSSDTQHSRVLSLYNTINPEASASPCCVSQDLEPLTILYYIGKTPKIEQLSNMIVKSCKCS
Experimental: as §2

TGFβ3 = biological target: T14, TGFβ3 (human, UniProt P10600 301-412); experiment: Biacore SPR; kinetics indeterminate (transient)
T14 construct: Human (PeproTech) is stated for the A549 reporter assay; also called TGF-beta3
T14 sequence (looked up): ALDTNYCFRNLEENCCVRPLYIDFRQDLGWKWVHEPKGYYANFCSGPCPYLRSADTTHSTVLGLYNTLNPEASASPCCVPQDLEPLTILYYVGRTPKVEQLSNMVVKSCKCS
Experimental: as §2

TGFβ1 = biological target: T15, TGFβ1 (human, UniProt P01137 in part); experiment: Biacore SPR; kinetics indeterminate (transient)
Chain of TGFβ1 (P01137 279-390 limits assumed): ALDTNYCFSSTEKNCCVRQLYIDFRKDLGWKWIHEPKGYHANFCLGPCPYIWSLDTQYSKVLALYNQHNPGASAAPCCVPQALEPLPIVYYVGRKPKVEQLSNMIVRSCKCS
T15 construct: Human (PeproTech) is stated for the A549 reporter assay; also called TGF-beta1
Experimental: as §2

B1: ActRIIA-Fc:ALK4-Fc heterodimer (Fc fusion)
chain 1: [no letters for about 120 residues][no letters for about 250 residues]
chain 2: SGPRGVQALLCACTSCLQANYTCETDGACMVSIFNLDGMEHHVRTCIPKVELVPAGKPFYCLSSEDLRNTHCCYTDYCNRIDLRVPSGHLKEPEHPSMWGPVETGGGTHTCPPCPAPELLGGPSVFLFPPKPKDTLMISRTPEVTCVVVDVSHEDPEVKFNWYVDGVEVHNAKTKPREEQYNSTYRVVSVLTVLHQDWLNGKEYKCKVSNKALPAPIEKTISKAKGQPREPQVYTLPPSREEMTKNQVSLTCLVKGFYPSDIAVEWESNGQPENNYDTTPPVLDSDGSFFLYSDLTVDKSRWQQGNVFSCSVMHEALHNHYTQKSLSLSPG
notes: C-terminal Lys optional; also called ActRIIA-Fc:ALK4-Fc heterodimeric complex
- binding result (BMP9 [1]): no binding
- Kd (BMP7): 3.5 nM
- koff (BMP7): 0.072 s⁻¹
- kon (BMP7): 2e+07 M⁻¹ s⁻¹
- koff (GDF3): 0.0048 s⁻¹
- kon (GDF3): 490000 M⁻¹ s⁻¹
- Kd (activin AB): 0.013 nM
- koff (activin AB): 0.00023 s⁻¹
- kon (activin AB): 1.8e+07 M⁻¹ s⁻¹
- Kd (GDF8): 0.15 nM
- koff (GDF8): 0.0028 s⁻¹
- kon (GDF8): 1.8e+07 M⁻¹ s⁻¹
- Kd (GDF11): 0.022 nM
- koff (GDF11): 0.00065 s⁻¹
- kon (GDF11): 3e+07 M⁻¹ s⁻¹
- Kd (BMP6): 2.2 nM
- koff (BMP6): 0.012 s⁻¹
- kon (BMP6): 5.4e+06 M⁻¹ s⁻¹
- Kd (activin B): 0.05 nM
- koff (activin B): 0.00048 s⁻¹
- kon (activin B): 9.5e+06 M⁻¹ s⁻¹
- Kd (activin AC): 0.17 nM
- koff (activin AC): 0.00054 s⁻¹
- kon (activin AC): 3.2e+06 M⁻¹ s⁻¹
- Kd (activin A): 0.032 nM
- koff (activin A): 0.00024 s⁻¹
- kon (activin A): 7.4e+06 M⁻¹ s⁻¹
- Kd (BMP10 [2]): > 6 nM

B2: BMPRII-Fc:ALK1-Fc heterodimer (Fc fusion)
chain 1: SQNQERLCAFKDPYQQDLGIGESRISHENGTILCSKGSTCYGLWEKSKGDINLVKQGCWSHIGDPQECHYEECVVTTTPPSIQNGTYRFCCCSTDLCNVNFTENFPPPDTTPLSPPHSFNRDETGGGTHTCPPCPAPELLGGPSVFLFPPKPKDTLMISRTPEVTCVVVDVSHEDPEVKFNWYVDGVEVHNAKTKPREEQYNSTYRVVSVLTVLHQDWLNGKEYKCKVSNKALPAPIEKTISKAKGQPREPQVYTLPPSRKEMTKNQVSLTCLVKGFYPSDIAVEWESNGQPENNYKTTPPVLKSDGSFFLYSKLTVDKSRWQQGNVFSCSVMHEALHNHYTQKSLSLSPGK
chain 2: [no letters for about 100 residues][no letters for about 250 residues]
notes: C-terminal Lys optional; also called BMPRII-Fc:ALK1-Fc heterodimeric complex
- Kd (BMP9 [1]): 0.36 nM
- koff (BMP9 [1]): 0.00041 s⁻¹
- kon (BMP9 [1]): 1.2e+06 M⁻¹ s⁻¹
- Kd (BMP15 [3]): 3.5 nM
- koff (BMP15 [3]): 0.042 s⁻¹
- kon (BMP15 [3]): 1.2e+07 M⁻¹ s⁻¹
- Kd (BMP10 [4]): 0.023 nM
- koff (BMP10 [4]): 0.00035 s⁻¹
- kon (BMP10 [4]): 1.5e+07 M⁻¹ s⁻¹
- affinity ratio against BMPRII-Fc homodimer (BMP15 [5]): ~10 fold

B3: TGFβRIISHORT-Fc:ALK1-Fc heterodimer (Fc fusion)
chain 1: TIPPHVQKSVNNDMIVTDNNGAVKFPQLCKFCDVRFSTCDNQKSCMSNCSITSICEKPQEVCVAVWRKNDENITLETVCHDPKLPYHDFILEDAASPKCIMKEKKKPGETFFMCSCSSDECNDNIIFSEEYNTSNPDTGGGTHTCPPCPAPELLGGPSVFLFPPKPKDTLMISRTPEVTCVVVDVSHEDPEVKFNWYVDGVEVHNAKTKPREEQYNSTYRVVSVLTVLHQDWLNGKEYKCKVSNKALPAPIEKTISKAKGQPREPQVYTLPPSRKEMTKNQVSLTCLVKGFYPSDIAVEWESNGQPENNYKTTPPVLKSDGSFFLYSKLTVDKSRWQQGNVFSCSVMHEALHNHYTQKSLSLSPGK
chain 2: [no letters for about 100 residues][no letters for about 250 residues]
notes: C-terminal Lys optional; also called TGFBRIISHORT-Fc:ALK1-Fc heterodimer; TGFβRII-Fc:ALK1-Fc heterodimer
- Kd (BMP9 [6]): 0.11 nM
- koff (BMP9 [6]): 0.0022 s⁻¹
- kon (BMP9 [6]): 2.1e+07 M⁻¹ s⁻¹
- Kd (BMP10 [7]): 0.078 nM
- koff (BMP10 [7]): 0.00096 s⁻¹
- kon (BMP10 [7]): 1.2e+07 M⁻¹ s⁻¹
- binding result (TGFβ2): no binding
- Kd (TGFβ3): > 4.7 nM
- Kd (TGFβ1): > 5.3 nM

Like-named read-outs stand apart in the source and are kept apart here.
